Out of some 71,000 compounds screened, about 1,800 (2.5%) were called active. The shares of active, inactive and inconclusive entries below differ from those in the screen. Calls follow the shape of the dose curve; as a rule, active = well fitted activation curve with a large enough effect in the signal ratio, with a control signal flat (not every such curve was filed as active); inconclusive = small, poorly fitted or top-dose-only effect, or effect the other way, or a change in a side signal; inactive = flat fitted curve, though single readings scatter; the % refers to the signal ratio. Potencies of inconclusive entries are doubtful fits and often do not repeat.
Assay: Cell signaling CRE-BLA (Fsk stim); as to activity change, negative = inhibition: % of control where 0% means no effect
Conditions: CHO CRE-bla reporter (cAMP response element driving beta-lactamase), forskolin EC10, beta-lactamase ratio; activity change, negative = inhibition: at 38.2 µM (top of the series) unless noted
Method in brief: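 CRE-bla CHO reporter cells treated with compound titration plus EC10 NKH 477 (water-soluble forskolin), incubated 3 h at 37 °C; CCF4 loading 2 h at room temperature, 460/530 nm emission ratio read, AC50 values derived for positive or negative modulators.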
With `CCC1CCCCN1C(=O)Cn1c(=O)oc2ccccc21` (stereo unspecified) the Potency was inconclusive: 3.98 µM [falling, single point]. In the case of `CCOC(=O)C(NC(=O)c1ccccc1)(Nc1cc(C)on1)C(F)(F)F` (stereo unspecified), the Potency is reported as inconclusive: 2 µM [rising, full curve, poor fit]. With `CCCCCOc1ccc(/C=c2\sc3ncnn3c2=O)cc1` the activity change, negative = inhibition was “inactive”. In the case of `Nc1nnc(-c2cccc(Cl)c2Cl)c(N)n1`, the activity change, negative = inhibition is reported as inconclusive: 5.33%. With `CCN(C(C)=O)c1nnc(CSc2nc3ccccc3s2)s1` the Potency was active: 12.6 µM. In the case of `CCCOc1c(OC)cccc1C1CC(=O)Nc2cc3c(cc21)OCCO3` (stereo unspecified), the Potency is reported as inconclusive: 12.6 µM [rising, partial curve]. In the case of `CCn1c(N2CCN(CC(=O)c3c(C)n(C)c4ccccc34)CC2)nc2c1c(=O)[nH]c(=O)n2C`, the Potency is reported as active: 10 µM. For `Cc1cccc(CNc2nc(-c3ccc(C(=O)N(C)C)cc3)nc3ccccc23)c1`, the Potency was active: 0.794 µM. For `C=CCn1c(SCC(=O)c2cc(C)n(C(C)COC)c2C)nc2sc(C)c(C)c2c1=O` (stereo unspecified), the Potency was inconclusive: 3.16 µM [rising, single point]. With `Cc1noc(C)c1C(=O)N1CCC2(CCCN(C(=O)NC(C)C)C2)CC1` the activity change, negative = inhibition was “inactive”. In the case of `COc1ccc2c(c1OC)C(=O)N(c1cccc(C)c1)C2=O`, the Potency is reported as inconclusive: 10 µM [rising, partial curve]. In the case of `CCCCn1c(CN(Cc2ccccc2)Cc2ccccc2)nc2c1c(=O)n(C)c(=O)n2C`, the Potency is reported as inconclusive: 25.1 µM [rising, single point]. With `COc1ccc(N=Cc2c(O)[nH]c3ccccc23)cc1OC` the Potency was inconclusive: 12.6 µM [rising, partial curve]. With `CC[C@@]1(O)C(=O)OCc2c1cc1n(c2=O)Cc2cc3c(CN(C)C)c(O)ccc3nc2-1` the Potency was inconclusive: 3.98 µM [falling, single point]. For `COC(=O)c1ccccc1NC(=O)c1cccc(NC(=O)c2ccc(Br)o2)c1C`, the activity change, negative = inhibition was inconclusive: 24.9%. For `CCC(Sc1nncn1C)C(=O)Nc1nnc(-c2ccc(Cl)cc2)s1` (stereo unspecified), the activity change, negative = inhibition was inconclusive: -4.01%. In the case of `COc1cccc(-c2cc3nc4c(c(N5CCC6(CC5)OCCO6)n3n2)CCCC4)c1`, the activity change, negative = inhibition is reported as inconclusive: 20.7%. In the case of `CCCN1C(=O)c2cc(C(=O)NC3CCCCCC3)ccc2C1O` (stereo unspecified), the activity change, negative = inhibition is reported as “inactive”. With `O=C(CSc1nc2ccccc2c2ccccc12)c1ccccc1` the activity change, negative = inhibition was inconclusive: 23.4% [at 7.6 µM]. For `COc1cc(NC(=O)c2cc3ccccc3o2)c(OC)cc1Cl`, the Potency was inconclusive: 10 µM [rising, partial curve]. With `C=CCc1c(C)nc(SCc2nc3ccccc3c(=O)[nH]2)[nH]c1=O` the Potency was active: 10 µM. With `CSc1nc(N)c(C#N)c(-c2ccc(Cl)cc2)c1C#N` the Potency was inconclusive: 6.31 µM [rising, partial curve]. With `CC(=O)Nc1cc(OC(=O)c2ccco2)cc(OC(=O)c2ccco2)c1` the activity change, negative = inhibition was inconclusive: -23.1%. With `CCC(C)NC(=O)COc1ccc(S(=O)(=O)N2CCOCC2)cc1` (stereo unspecified) the Potency was inconclusive: 3.16 µM [falling, single point]. In the case of `CC1(C)Cc2ccccc2-c2n[nH]c(=S)n21`, the activity change, negative = inhibition is reported as “inactive”. In the case of `Cc1ccc(C2C3=C(CCCC3=O)Nc3nc(SCC(=O)NCc4ccco4)[nH]c(=O)c32)cc1` (stereo unspecified), the activity change, negative = inhibition is reported as inconclusive: 3.48%. For `CCOC(=O)CSc1nc2ccccc2c(=O)n1CC1CCC(C(=O)NCc2ccco2)CC1` (stereo unspecified), the activity change, negative = inhibition was inconclusive: 77.1%. For `Cc1ccccc1CS(=O)(=O)CCC(=O)N1CCN(c2ccc(N3CCOCC3)nn2)CC1`, the activity change, negative = inhibition was inconclusive: 7.84%. In the case of `O=C(CSc1n[nH]c(=O)[nH]c1=O)c1ccccc1`, the activity change, negative = inhibition is reported as “inactive”. For `Cc1ccc(-n2ncc3c(NCc4ccco4)ncnc32)c(C)c1`, the activity change, negative = inhibition was inconclusive: 29.2%. For `Cn1c(C(=O)N2CCN(C(=O)c3ccco3)CC2)cc2c(=O)n(C)c3ccccc3c21`, the Potency was active: 3.98 µM. In the case of `O=S(=O)(c1ccccc1)N1CCN(Cc2ccccc2C(F)(F)F)CC1`, the Potency is reported as inconclusive: 25.1 µM [rising, single point]. With `Cc1cc2n(n1)C(c1ccc3c(c1)OCO3)Nc1ccccc1-2` (stereo unspecified) the Potency was inconclusive: 10 µM [rising, single point]. For `CSCC[C@@H](C(=O)O)N(C)C`, the activity change, negative = inhibition was inactive: -1.36% [at 7.6 µM]. For `Cc1cccc(Cn2cnc3c(nnn3Cc3ccc(Cl)cc3)c2=O)c1`, the Potency was inconclusive: 10 µM [rising, partial curve]. For `COc1ccc2nc3cc(Cl)ccc3c(Nc3ccc(O)c(CN4CCN(C)CC4)c3)c2c1`, the Potency was inconclusive: 2.51 µM [rising, partial curve]. With `CC(C)(S)[C@H](N)C(=O)O` the activity change, negative = inhibition was inactive: -10.2% [at 7.6 µM]. For `COc1ccc(-c2ccc(-c3noc(C)n3)c(OC)n2)cc1`, the activity change, negative = inhibition was “inactive”. In the case of `O=C(CCc1nc2ccccc2c(=O)[nH]1)NC1CCN(Cc2ccccc2)CC1`, the Potency is reported as inconclusive: 3.98 µM [falling, single point]. In the case of `CC(=O)Nc1ccc(S(=O)(=O)c2c(N)n(CCN3CCOCC3)c3nc4ccccc4nc23)cc1`, the activity change, negative = inhibition is reported as “inactive”. For `Cc1cccc2sc(NC(=O)CCNS(=O)(=O)c3cccc4nonc34)nc12`, the activity change, negative = inhibition was “inactive”. With `CCOC(=O)c1ccc(NS(=O)(=O)c2cc(-c3nnnn3C(C)C)ccc2OC)cc1` the activity change, negative = inhibition was inconclusive: 1.12%. For `COC(=O)c1c(C#N)c(N)nc2c1CCCC2`, the Potency was active: 10 µM. In the case of `Cc1nn(-c2ccccc2)c(C)c1C(=O)Nc1nnc(-c2ccco2)o1`, the activity change, negative = inhibition is reported as “inactive”. With `Cc1cc(C)n(-c2nc3ccccc3nc2Nc2ccc3[nH]c(=O)[nH]c3c2)n1` the activity change, negative = inhibition was inconclusive: -22.6%. In the case of `COC(=O)c1ccc(CCc2cc(O)ccc2O)cc1`, the activity change, negative = inhibition is reported as inactive: -16.3% [at 7.6 µM]. In the case of `Cc1cccc(-c2noc(C3CCCCC3)n2)c1`, the activity change, negative = inhibition is reported as inconclusive: 3.31%. For `CCn1c(C(=O)N2CCCC(C(=O)O)C2)cc2sccc21` (stereo unspecified), the activity change, negative = inhibition was “inactive”. In the case of `CCN(Cc1ccncc1)C(=O)c1cccs1`, the Potency is reported as inconclusive: 0.398 µM [rising, single point]. With `c1ccc(CCc2nc(-c3ccncc3)no2)cc1` the activity change, negative = inhibition was inconclusive: 13.4%. With `Cc1ccc(NCc2nnc(SCC(=O)Nc3ccccc3)n2CC2CCCO2)c(C)c1` (stereo unspecified) the Potency was inconclusive: 12.6 µM [falling, single point]. With `COc1ccc(-c2noc(CCC(=O)Nc3ccc(C)c(C)c3)n2)cc1` the activity change, negative = inhibition was inconclusive: 8.55%. In the case of `CC(C(=O)NCCCN1CCOCC1)n1cccc1C(=O)c1ccccc1` (stereo unspecified), the activity change, negative = inhibition is reported as inconclusive: -5.4%. For `CCN(Cc1ccccc1)C(=O)CSc1nc(C)cc(C)c1C#N`, the activity change, negative = inhibition was “inactive”. In the case of `O=C(NCc1ccccc1)c1c(O)c2cccc3c2n(c1=O)CCC3`, the activity change, negative = inhibition is reported as “inactive”. With `CCCN(CCO)Cc1cccc(Oc2ccccc2)c1` the activity change, negative = inhibition was inactive: -0.912% [at 7.6 µM]. In the case of `COc1ccc(-n2c(=O)cnc3cnc(Nc4ccccc4)nc32)cc1`, the activity change, negative = inhibition is reported as “inactive”. In the case of `COc1cccc(Nc2ncc3nc(C)c(=O)n(CCC#N)c3n2)c1`, the Potency is reported as active: 10 µM. In the case of `COc1ccc(CCNC(=O)c2c[nH]c3ccccc3c2=O)cc1OC`, the Potency is reported as active: 10 µM. With `Cc1nc(NCCCn2ccnc2)c2ccccc2n1` the activity change, negative = inhibition was inconclusive: -18%. In the case of `C=CCn1c(SCC(=O)C(C)(C)C)nnc1-c1ccccn1`, the Potency is reported as inconclusive: 2.51 µM [rising, single point]. In the case of `COc1ccccc1N=c1oc2cc(O)ccc2cc1C(=O)NCC1CCCO1` (stereo unspecified), the Potency is reported as active: 10 µM. With `CCn1c(SCC(=O)Nc2ccccc2OC)nnc1-c1cnccn1` the Potency was inconclusive: 12.6 µM [rising, single point]. In the case of `Cc1ccc(N2CC(C(=O)NCc3ccccn3)CC2=O)cc1` (stereo unspecified), the Potency is reported as inconclusive: 3.16 µM [falling, partial curve]. With `COC(=O)C1CCN(C(=O)NC2CCCCC2)CC1` the activity change, negative = inhibition was inconclusive: 19.2%. With `CCCCCCC(=O)Nc1ccc(Cl)cn1` the Potency was inconclusive: 1.26 µM [falling, partial curve]. In the case of `CCOc1ccccc1OCC(=O)O`, the Potency is reported as inconclusive: 3.98 µM [falling, single point]. For `CCS(=O)(=O)NCC(c1cccnc1)N1CCN(c2ccccc2F)CC1` (stereo unspecified), the activity change, negative = inhibition was inconclusive: -19.2%. With `O=P(O)(O)CCP(=O)(c1ccccc1)c1ccccc1` the activity change, negative = inhibition was inconclusive: 4.01%. In the case of `COc1cc2c(=O)n(Cc3ccco3)c(=O)n(CC(=O)c3ccc(Br)cc3)c2cc1OC`, the Potency is reported as inconclusive: 3.16 µM [rising, full curve, poor fit]. With `CC1(C(=O)NC2CCCCCCC2)CCC(=O)N1Cc1cccnc1` (stereo unspecified) the activity change, negative = inhibition was inconclusive: 13.6%. For `CCc1cc(=O)oc2cc3oc(C)c(C)c3cc12`, the Potency was inconclusive: 10 µM [rising, partial curve]. For `COc1cccc(Nc2ncc3nc(C)c(=O)n(Cc4cccs4)c3n2)c1`, the Potency was inconclusive: 2.51 µM [rising, partial curve]. With `COc1ccc(OC)c(C2=NOC(C(=O)NCc3ccccn3)C2)c1` (stereo unspecified) the activity change, negative = inhibition was inconclusive: 11.2%. In the case of `COC(=O)c1c(C(=O)OC)c2ccncn2c1Cl`, the activity change, negative = inhibition is reported as “inactive”. In the case of `N=C(N)c1ccc(OCCCCCOc2ccc(C(=N)N)cc2)cc1` (tested in a mixture with another compound), the activity change, negative = inhibition is reported as “inactive”. With `CCOC(=O)c1ccc(COC(=O)c2cc3ccccc3oc2=O)o1` the activity change, negative = inhibition was “inactive”. For `Nc1nc(SCc2ccccc2)ns1`, the Potency was inconclusive: 5.01 µM [rising, single point]. In the case of `COC(=O)C1=C(N)Oc2cc(C)n(Cc3ccncc3)c(=O)c2C1c1cccnc1` (stereo unspecified), the activity change, negative = inhibition is reported as inconclusive: 24%. With `Cc1cccc(Cn2c(N3CCCCC3C)nc3c2c(=O)[nH]c(=O)n3C)c1` (stereo unspecified) the activity change, negative = inhibition was inconclusive: 8.15%. For `COc1ccc(-c2nc3cnc(Nc4ccccc4)nc3n(C[C@H]3CCCO3)c2=O)cc1`, the Potency was inconclusive: 1.26 µM [rising, full curve].

Reference: PubChem BioAssay AID662 (National Center for Advancing Translational Sciences (NCATS), 2007)
Potency is read from the fitted curve at half-maximal effect; tags tell the direction and shape of the fitted curve.
